Data: publication PMC12136788
The other results are listed elsewhere or left out.

T1: UNK ZnF1-3 (human, UniProt Q9C0B0 31-174)
T1 sequence: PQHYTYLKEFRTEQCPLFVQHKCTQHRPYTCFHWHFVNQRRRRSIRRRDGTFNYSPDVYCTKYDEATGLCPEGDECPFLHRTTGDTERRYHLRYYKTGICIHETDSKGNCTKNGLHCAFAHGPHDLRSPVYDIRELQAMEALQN

B1: chr1:6260860:6260861:+_ENSMUSG00000025907_ENSMUST00000027040|perfect_dup|motif|central (ssRNA)
RNA: GGGAGUUCUACAGUCCGACGAUCUGGUUUGAGAUCCAGGGCAGGUAGAGACUCUGAAUGUAGAAAAUAUAAAGUAGGACGGACAGUAAAUAACACAUAAUUGUCAUGGCGUUCGUCUAGGAUGAUGAGUACCAAAUCUCCCACCAACAGAGGAUUGAGCAUCA
B2: chr2:48026839:48026840:+_ENSG00000116062_ENST00000540021|hu_hu|hu_hu_hu_mus_False|1_1 (ssRNA)
RNA: GGGAGUUCUACAGUCCGACGAUCAUAGUGAGCCACUAGCGUCCUAAAUCUGGAACAGUGGCGGUCAUCCGAAAACUGGCCGAUGAAAAACUUGCCCAGUGAAGUGUCCACAAAGCAAACACCAUACACACGAGUGUGGCCAGACAACAGAGGAUUGAGCAUCA
B3: chr2:42509997:42509998:+_ENSG00000143924_ENST00000318522|hu_mus|hu_hu_hu_mus_True|28_58 (ssRNA)
RNA: GGGAGUUCUACAGUCCGACGAUCUCGCUGAGUCCUCUCCUCAUAAUUAAACAGGACUACCACUGAGGCGAUAAAAUAAACUAUUUUCCCUGUGGGAAGCAGGUAUACAUUAGCUCUACAGUCCUUUCCUCGAUAACCGUAUACCAACAGAGGAUUGAGCAUCA
B4: chr3:9412954:9412955:+_ENSG00000134077_ENST00000452837|hu_mus|hu_hu_hu_mus_False|1_108 (ssRNA)
RNA: GGGAGUUCUACAGUCCGACGAUCGGUUGAUACAUCCUCUUUGAUGGCUGGAUUUUCAUAAUAGUCCAAGAUAUGUGAAUCUGAAGUGCUGCUGGCAUGCUUUUUCUUACCAUCUUUCUCAUCUGCUUUGUCUCCUUGUCCAUUCAACAGAGGAUUGAGCAUCA
B5: 128103536_128109129_3178_CDS_ENSG00000165219_ENST00000394104|human|control|control (ssRNA)
RNA: GGGAGUUCUACAGUCCGACGAUCAGCUUGUGCACUGAGUCUAGGGCUGGGAUCAUCUGUGAGUGUUGAGAAUCUGUCAGGCCCCAGAUCAUCUUUGUCUUUUUCUUGUUUUUCUUUCUUUCUAAAUGGUAUAGGAGCUUUAGGCAACAGAGGAUUGAGCAUCA
B6: chr7:44244176:44244177:+_ENSG00000106636_ENST00000223369|hu_hu|FALSE|FALSE (ssRNA)
RNA: GGGAGUUCUACAGUCCGACGAUCACUAUCAUUCCGGACGUAGACGUGGCACAGAUAGUCUUGUUCUUUGACAGAAGCUCUAGUGCCUUUCGAUGAGCGCUCCACAAUCAGUUGACUCGUGAAGGUCAUGAAUUCCUGAACGCUCAACAGAGGAUUGAGCAUCA
B7: chr8:97153689:97153690:+_ENSMUSG00000050079_ENSMUST00000060389|mus_mus|motif|central (ssRNA)
RNA: GGGAGUUCUACAGUCCGACGAUCGUCUAGUAACAAGGUUAUAACAGCUGGUCCCAAUGGAUCUUCCAAUGGAAUAACUCGGAUUAAAGACUGGACAACAUCCAACCAUCCUUCAUCUGUUUCUGCCAUUUCAUGUAAUGUAAUCAACAGAGGAUUGAGCAUCA
B8: chr2:65539780:65539781:-_ENSG00000198369_ENST00000356388|hu_mus|FALSE|FALSE (ssRNA)
RNA: GGGAGUUCUACAGUCCGACGAUCGUUUGUAAAAUAAUUGAGUAAAAUUUAUCUCACUGAUGUGUUAUUCUAAGUAUUGCUAGGAUUUUAGAAGUGGCAAUGCAAUUCUAAAAAGUCCUAUUUUUCGGGUCAACUGGGCAAGCUCAACAGAGGAUUGAGCAUCA
B9: chr18:10000604:10000605:-_ENSMUSG00000047879_ENSMUST00000092096|mus_mus|FALSE|FALSE (ssRNA)
RNA: GGGAGUUCUACAGUCCGACGAUCAGAGACCAUUUUCUCUUGAAGUUCUGGUGUGCAGAGUUCAUACACAUCCAACAUAAGAGGAAACUUAACAUCCUUAAGAACUUUGGCGUUCACAGAUUCUUUCUCUUUAUAAAAAAAUCGCAACAGAGGAUUGAGCAUCA
B10: chr13:45008927:45008928:-_ENSG00000102804_ENST00000261489|perfect_dup|motif|central (ssRNA)
RNA: GGGAGUUCUACAGUCCGACGAUCCGGACUGGCCAGCGUCUUCAGCAGAUUGUUCUCCUGCUCCAGCUGGGAGUUUUUCUCGGUUAGUUCUUUGAUCUGCUCCUUCAGAACUUCCACUUCCUCCCUCACCGCAUACAUCAAAUGCAACAGAGGAUUGAGCAUCA
B11: chr3:148802587:148802588:-_ENSG00000071794_ENST00000310053|hu_mus|hu_hu_hu_mus_False|28_68 (ssRNA)
RNA: GGGAGUUCUACAGUCCGACGAUCUCCAACAACUUGUCCUCUCAUAGUUCCAAAUAAAACCAAAUCUACUUCUUCAUCACUCGUUAGGAAGUCAUCUGGAGGAAUAACAUCUUGGAAUUCAAAAUGUGGCAAGAAAGUUGAGUACAACAGAGGAUUGAGCAUCA
B12: chr11:94609001:94609002:+_ENSG00000166025_ENST00000433060|hu_hu|motif|central (ssRNA)
RNA: GGGAGUUCUACAGUCCGACGAUCAGAGAUGUGAACACAUAGGAGGCAUGGCAAGAGAAUUGAUUUUUAAAAAUCUGUGUGCGGAUGAGGAUGAUCCCCCCUUGAAGUGGACACUUUGAGAGGCUCUGAGGCCAAAGACUCAUUCAACAGAGGAUUGAGCAUCA
B13: chr1:60041781:60041782:+_ENSMUSG00000041040_ENSMUST00000036540|mus_hu|mus_mus_mus_hu_False|28_78 (ssRNA)
RNA: GGGAGUUCUACAGUCCGACGAUCAAGUUUACAAUAGUAAAGUAAAUGCAGUAGUGGAAUGGCAAGUUUUAUUUUCCUUCACAAAAGAAAAUCUUUAUAACCCAGUCCAAUCCCAGAACAUAGUGAAAGCUAUAAAUUCUGACUCAACAGAGGAUUGAGCAUCA
B14: chr5:71505325:71505326:+_ENSG00000131711_ENST00000296755|hu_hu|FALSE|FALSE (ssRNA)
RNA: GGGAGUUCUACAGUCCGACGAUCUUUGUAUUUUAUUGUGGAACUGAGUUUUUUUUUUUCCUUUACAUCAAAUAUCCUCAAUGGAAGAGGGGAUAUUGCACACAAAUAUCAUAAAAGCACUACAUAUUACUUUCACUGGAAACUCAACAGAGGAUUGAGCAUCA
B15: 20112534_20113841_6052_CDS_ENSG00000166833_ENST00000396085|human|control|control (ssRNA)
RNA: GGGAGUUCUACAGUCCGACGAUCGGACACUUGGGAAGGAGCCCGGCUGCAGCCACUGCCUUGAGACUCUGACUUCAGCCGAUCAUUCUCAGCUUUCAGCUUCUCUAUUUCACUCUGCAUCCUGUUCAUGGCCUCCCGGAGCUGCAACAGAGGAUUGAGCAUCA
B16: chr8:104447970:104447971:+_ENSG00000164934_ENST00000297579|hu_hu|hu_hu_hu_mus_False|58_98 (ssRNA)
RNA: GGGAGUUCUACAGUCCGACGAUCAUACACUUCCCUGCUUCGACUUUUGUCCACAGGAAAGAUUCUAAUAGACUUAUCGAAACUAGCAGACACAAAUUCCUUCCCAGUGGGAGAGUAGUCCACAUCAAGUACUGCAGACACGUGCAACAGAGGAUUGAGCAUCA
B17: chr2:198351390:198351391:-_ENSG00000144381_ENST00000345042|hu_hu|hu_hu_hu_mus_False|1_28 (ssRNA)
RNA: GGGAGUUCUACAGUCCGACGAUCUCAUUCCCACCCUCCACAGAAAGGCUGCUUCUGAACUCUCAUGUGGUGACACAGCGCUACAGUCCUGAUGCUCACAGAACAGUAGUAAAAAUGCAGUGAUUUAAGUUGAAAGCAGCAGUACAACAGAGGAUUGAGCAUCA
B18: chr6:83880054:83880055:+_ENSMUSG00000030016_ENSMUST00000032088|mus_hu|FALSE|FALSE (ssRNA)
RNA: GGGAGUUCUACAGUCCGACGAUCUAUUCUUGGAGAUGCUGCAUAAUAAUCAUUCAUCAUAGAAGGAGUUGGAAGUCUCUUCAUCUUCUGGGCAUCAGCAUGUGAAAACUUUGGUAGCCAGGAUGCUUUCACAAUACCAAAGGGCAACAGAGGAUUGAGCAUCA
B19: chrX:20248820:20248821:+_ENSMUSG00000001924_ENSMUST00000001989|mus_mus|mus_mus_mus_hu_True|98_98 (ssRNA)
RNA: GGGAGUUCUACAGUCCGACGAUCGGCGAAGUCCGUCAUCACAAAGUCAGGUUCUGCCAGUGAGGCCACCAAGGAUUUAAAGCUAAUCUUCUUAGGUACUUUGACCUGACUGACGAUGCCUCCACGGAUGUAGUCGGAGAAGUUCAACAGAGGAUUGAGCAUCA
B20: chr5:36837918:36837919:-_ENSMUSG00000029192_ENSMUST00000171385|mus_hu|FALSE|FALSE (ssRNA)
RNA: GGGAGUUCUACAGUCCGACGAUCGAACACGUCCCAGAUACGACAGGCCAGGUCGAGGGGCAGAGAUUUACUAUAUAAGGUAAAGAUCCAAUCAAUUAGGUAGAUAUCUGGAGUUAGGUUGUUCUUCUUGAAAUGCGCAAAUAACAACAGAGGAUUGAGCAUCA
B21: chr4:76721835:76721836:+_ENSG00000138768_ENST00000264904|hu_mus|hu_hu_hu_mus_True|58_88 (ssRNA)
RNA: GGGAGUUCUACAGUCCGACGAUCGUUUGGCUGGGGUUUCUGAGACGUCUGGAAUACUAACUCAUGUUUGCUAAUAAUCCUAGUUUCCUCUAUGAAAUUCUCUUUGCCAAUCCUCUUCUCUAUUAGUUGCUUUAGUUUCUCUUUCAACAGAGGAUUGAGCAUCA
B22: chr2:113333244:113333245:+_ENSG00000125630_ENST00000417433|hu_mus|motif|central (ssRNA)
RNA: GGGAGUUCUACAGUCCGACGAUCGGGAUCAAGUCAGAUGACAUCCAGUUUCACUUUGAUGUUCAUGGCUGCCAGCUCAGCGGCAAAGUACCGGAAGACAUACGGCACAGAGACGGUGUCGAUGGUGUCACUGCGGCCACAGACCAACAGAGGAUUGAGCAUCA

molecular target: T1, UNK ZnF1-3; test: nsRBNS (natural sequence RNA bind-n-seq); RBNS binding buffer (assumed for nsRBNS): 25 mM Tris pH 7.5, 150 mM KCl, 3 mM MgCl2, 0.01% Triton X-100, 500 ug/ml BSA, 20 U/ml SUPERase-In, 4 C; UNK is unkempt and MSI1 is Musashi-1; names of the RNAs are library labels; protein concentration not given here; high values mean tight binding

Row | Binder | binding signal [enrichment R]
1 | B1 | 2.34
2 | B2 | 1.01
3 | B3 | 1.59
4 | B4 | 0.531
5 | B5 | 0.996
6 | B6 | 0.331
7 | B7 | 0.757
8 | B8 | 0.813
9 | B9 | 0.557
10 | B10 | 0.949
11 | B11 | 1.4
12 | B12 | 2.55
13 | B13 | 0.484
14 | B14 | 0.644
15 | B15 | 0.68
16 | B16 | 0.787
17 | B17 | 1.39
18 | B18 | 1.41
19 | B19 | 0.85
20 | B20 | 1.56
21 | B21 | 0.35
22 | B22 | 1.25
